Test results reported in publication PMC6919601, “Identification of Plasmodium dipeptidyl aminopeptidase allosteric inhibitors by high throughput screening” (PLoS ONE, 2019).
The whole screen tested about 110,000 compounds, of which about 230 (0.21%) showed an effect of 50% or more. The list shows a part of the results.

Target: DPAP1 (Plasmodium falciparum, UniProt Q8IIJ9)
Assay: primary screen, percent inhibition; read by cleavage of a fluorogenic dipeptide substrate; higher = more effect of the substance
Design: species or system P. falciparum D10 trophozoite lysates; single well
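Further: 30 min substrate incubation versus DMSO and 10 µM JCP410 controls.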

DPAP1, sequence (Q8IIJ9 whole entry, looked up): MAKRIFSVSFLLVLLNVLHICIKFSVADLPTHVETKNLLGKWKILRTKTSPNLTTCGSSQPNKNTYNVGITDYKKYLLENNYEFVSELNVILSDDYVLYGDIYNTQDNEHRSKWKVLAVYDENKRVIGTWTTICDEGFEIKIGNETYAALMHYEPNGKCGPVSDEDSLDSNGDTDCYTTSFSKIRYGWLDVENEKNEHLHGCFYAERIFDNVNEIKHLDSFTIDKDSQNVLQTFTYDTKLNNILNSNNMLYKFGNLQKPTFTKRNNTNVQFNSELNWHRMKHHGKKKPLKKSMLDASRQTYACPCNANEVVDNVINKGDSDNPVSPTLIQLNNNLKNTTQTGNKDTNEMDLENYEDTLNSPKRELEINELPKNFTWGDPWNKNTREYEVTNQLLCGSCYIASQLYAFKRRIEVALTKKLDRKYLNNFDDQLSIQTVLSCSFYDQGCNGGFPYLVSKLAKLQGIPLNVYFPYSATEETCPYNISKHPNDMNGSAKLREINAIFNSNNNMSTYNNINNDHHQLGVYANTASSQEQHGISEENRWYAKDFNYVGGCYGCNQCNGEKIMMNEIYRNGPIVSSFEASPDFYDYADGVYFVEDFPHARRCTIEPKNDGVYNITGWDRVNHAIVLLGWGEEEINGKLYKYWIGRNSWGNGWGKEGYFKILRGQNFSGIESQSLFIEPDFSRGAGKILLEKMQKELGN

| Structure (SMILES) | % Inhibition @ 10 uM |
| --- | --- |
| N#Cc1cc2c(nc1SCC(=O)Nc1nonc1N)CCC2 | 4.61% |
| COCCn1c(=N)c(C(N)=S)cc2c(=O)n3ccccc3nc21 | 6.7% |
| COc1ccccc1CNC(=O)CCS(=O)(=O)c1cccc2nonc12 | -8.38% |
| CN1C(=O)C(=Cc2ccc(Sc3ccc(Cl)cc3)o2)C(=O)N(C)C1=O | -3.78% |
| C/C(=N\Cc1ccco1)C1=C(O)CC(C)(C)CC1=O | -7.75% |
| Cc1cc(C)c(/C=C2\NC(=S)NC2=O)c(C)c1 | -5.62% |
| O=C(CNC(=O)c1ccccc1F)Nc1nccs1 | -3.06% |
| Cc1ccc(CNC(=O)C2CCN(c3nnc(-n4c(C)ccc4C)s3)CC2)cc1 | 4.33% |
| CCOc1ccc(CC(=O)Nc2ccc(OC)cc2)cc1OCC | -5.27% |
| CC1CCCCC1NC(=O)COCc1cc(-c2cccs2)on1 (stereo not drawn) | -1.04% |
| O=C(CCc1cn(Cc2ccc(F)cc2)c2ccccc12)NCc1cccnc1 | -1.11% |
| COCCn1c(SCC(=O)NCC2CCCO2)nnc1-c1c[nH]c2ccccc12 (stereo not drawn) | -1.3% |
| COc1ccc(C2NN=C(c3ccccc3O)S2)cc1 (stereo not drawn) | 0.0538% |
| CC(C)=C1C2C=CC1C1C(=O)N(c3ccc(C)c(Br)c3)C(=O)C21 (stereo not drawn) | -8.72% |
| CC(C)=C1N=C(c2ccccc2)OC1=O | 1.42% |
| O=C(O)CC(NC(=O)C(c1ccccc1)c1ccccc1)c1ccco1 (stereo not drawn) | 1.9% |
| c1cc(-c2noc(C34CC5CC(CC(C5)C3)C4)n2)ccn1 | 2.16% |
| Cc1ccc(/C=c2\sc3n(c2=O)C(N)=C(C#N)C(c2ccc(C)o2)C=3C#N)o1 (stereo not drawn) | 6.58% |
| COc1ccc(OC)c(CN2C[C@@H]3C[C@H](C2)c2cccc(=O)n2C3)c1 | 4.7% |
| CCCCNC(=O)C(Sc1ccccc1)c1ccccc1 (stereo not drawn) | 0.317% |
| O=C(c1cccnc1)N1CCN(Cc2ccc(Br)cc2)CC1 | 8.6% |
| Cc1ccc2nc(N3CC(=O)N(CCc4ccccc4)C(=O)C3)c3nncn3c2c1 | 0.981% |
| CN1C(=O)C(C(=O)NC(C)(C)C)C2CC1(C)Oc1ccccc12 (stereo not drawn) | 0.147% |
| CC(=O)N1CCc2[nH]c3ccc(C)cc3c2C1 | 1.02% |
| CSC1=NSC2=NC(=O)/C(=C\c3cccc4ccccc34)C(=N)N12 | -3.39% |
| CCN1CCN(C(CNC(=O)C(=O)NCCOC)c2cccnc2)CC1 (stereo not drawn) | -5.37% |

| Structure (SMILES) | % Inhibition @ 10 uM |
| --- | --- |
| CC(NCc1c(C(=O)O)n(C)c2ccccc12)C12CC3CC(CC(C3)C1)C2 (stereo not drawn) | 5.09% |
| CCC1(C)CC(CCN2C(=O)c3ccccc3C2=O)(c2ccc(C)cc2)CCO1 (stereo not drawn) | -0.169% |
| O=C(CSCc1ccc(Br)cc1)NCCSc1ccc(Cl)cc1 | 3.05% |
| CC1OC(Nc2ccc(OC(F)(F)Cl)cc2)C(O)C(O)C1O (stereo not drawn) | 5.15% |
| O=S(=O)(Nc1ccccc1Br)c1ccc(Br)cc1 | -4.61% |
| CCOc1ccc(Nc2nc(C)c(C(C)=O)s2)cc1 | -5.31% |
| COc1ccc(OC)c(C2CC(c3cccc(Br)c3)Nc3nnnn32)c1 (stereo not drawn) | 0.0842% |
| CC1CC(C)CN(C(=O)CCCn2c(=O)c3cccn3c3cccnc32)C1 (stereo not drawn) | 2.03% |
| O=C(CCCN1C(=O)CSc2ncccc21)NCc1ccc2c(c1)OCO2 | -0.637% |
| O=C(c1ccco1)N(CCN(Cc1ccccc1)C(=O)c1ccco1)Cc1ccccc1 | -1.06% |
| Cc1ccc2c(CN3CCCCCC3)cc(=O)oc2c1 | 0.00706% |
| CCc1ccc(CNc2ncnc3onc(C)c23)cc1 | -4.4% |
| CC1(C)CC(=O)C2=C(C1)OC(N)=C(C#N)C2c1cncc(-c2ccc(F)cc2)c1 (stereo not drawn) | -2.64% |
| Cc1cc(NCCc2ccc(F)cc2)nc2cc(Cl)ccc12 | 2.91% |
| COc1cccc(/C=N/N=C(/c2ccc(Cl)cc2)C23CN4CN(CN(C4)C2)C3)c1 | -2.39% |
| CCOc1cccc(C2C(C(=O)OC)=CN(C(C)C)C=C2C(=O)OC)c1 | -6.93% |
| CCOC(=O)N1CCC(NC(=O)C2CCCCN2S(=O)(=O)c2ccc(F)cc2)CC1 (stereo not drawn) | -7.44% |
| O=C(O)CCCCn1c(SCC(=O)NCCC2=CCCCC2)nc2ccsc2c1=O | -6.28% |
| CCOC(=O)C1CCCN(Cc2cccs2)C1 (stereo not drawn) | -5.41% |
| CCc1nc2ccc(C(=O)NCc3ccc(C)o3)cc2nc1CC | 1.11% |
| CC(=O)c1ccc(NS(=O)(=O)c2cc(C(=O)Nc3ccc(Br)cc3)ccc2C)cc1 | 5.61% |
| CCc1nonc1NC(=O)c1cc(OC)c(OC)c(OC)c1 | 0.00706% |
| COC(=O)C1=C(C)N(CC(C)C)C(=O)/C1=C\c1ccc(C(=O)OC)cc1 | -7.18% |
| O=Cc1cccn1-c1nnc(N2CCCC2=O)s1 | -1.6% |
| Cc1oc(-c2cccs2)nc1CSc1nc2ccncc2[nH]1 | 4.22% |
